These results are taken from PubChem BioAssay AID360 (National Center for Advancing Translational Sciences (NCATS), 2006).

Structures are written as SMILES. Hit rate of the full screen: of about 48,000 compounds, about 550 (1.1%) were called active. Not shown: some 4% with an inconclusive outcome. Rule as the data show it: active = potency below about 15 µM; inconclusive = mostly about 16 µM to 33 µM; inactive = weaker than that. The list shows a part of the results.
Potency is read from the fitted curve at half-maximal effect.

UniProt P04062, sequence (P04062 whole entry, looked up): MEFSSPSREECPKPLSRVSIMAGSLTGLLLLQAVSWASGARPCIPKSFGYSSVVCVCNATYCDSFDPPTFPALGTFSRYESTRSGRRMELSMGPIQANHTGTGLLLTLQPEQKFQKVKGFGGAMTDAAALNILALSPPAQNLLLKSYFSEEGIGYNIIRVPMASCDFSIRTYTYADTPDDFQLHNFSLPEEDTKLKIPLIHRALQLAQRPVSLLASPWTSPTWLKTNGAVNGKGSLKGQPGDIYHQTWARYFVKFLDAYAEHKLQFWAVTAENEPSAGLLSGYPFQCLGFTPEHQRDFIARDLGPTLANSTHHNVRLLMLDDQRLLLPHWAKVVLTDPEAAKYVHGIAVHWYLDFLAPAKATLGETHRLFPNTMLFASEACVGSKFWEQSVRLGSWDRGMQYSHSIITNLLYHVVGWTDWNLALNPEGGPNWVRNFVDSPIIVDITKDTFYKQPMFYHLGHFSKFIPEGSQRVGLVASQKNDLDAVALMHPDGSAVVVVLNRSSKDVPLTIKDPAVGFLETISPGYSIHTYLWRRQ

This assay has as its target Lysosomal acid glucosylceramidase (Homo sapiens) (UniProt P04062). Briefly: Glucocerebrosidase.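 Also: the screen sought inhibitors.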 The conditions noted are these: purified enzyme, resorufin glucoside fluorescence (screen aimed at inhibitors), 20 min; series mostly up to 77 µM. Summed up:
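Wild-type enzyme at 0.2 nM final in 50mM citric acid/KH2PO4, 10mM sodium taurocholate, 0.01% tween-20, pH 5.9, with resorufin beta-D-glucopyranoside at 30 uM final. Compounds titrated, 20 min at RT, red fluorescence read; AC50 from titration.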
Regarding `COc1ccc(OC)c(C2C(C(=O)c3cccs3)=C(O)C(=O)N2c2cc(C)on2)c1` (stereo unspecified), the Potency was inactive: > 76.9 µM.

Turning to `c1cncc(-c2nnc(-c3cccnc3)nn2)c1`, the Potency is inactive: > 76.9 µM.

As to `Cc1cccc(N2CCN(C(=O)C3CCN(S(=O)(=O)c4cccc5nsnc45)CC3)CC2C)c1` (stereo unspecified), the Potency was inactive: > 76.9 µM.

In the case of `c1ccc(-n2nnnc2-n2nnc3ccccc32)cc1`, the Potency is inactive: > 76.9 µM.

`Cc1c(Cl)cccc1NC(=O)CSCc1cc(=O)[nH][nH]1`: the Potency is inactive: > 76.9 µM.

`CCCCn1c(SCC(=O)c2ccccc2)nc2c1c(=O)[nH]c(=O)n2C`: the Potency is inactive: > 76.9 µM.

With `COc1ccc(S(=O)(=O)N2CCCC(C(=O)NCc3ccncc3)C2)cc1` (stereo unspecified), the Potency was inactive: > 76.9 µM.

For the molecule `CCOC(=O)c1sc(=S)n(-c2cc(OC)ccc2OC)c1N`, the Potency is inactive: > 76.9 µM.

On to `CNC(=O)c1cc2c(s1)CCCCCC2`, for which the Potency is inactive: > 76.9 µM.

For the molecule `Cc1ccc2c(c1)cc(C)c1nnc(SCC(=O)NCc3ccco3)n12`, the Potency was inactive: > 76.9 µM.

Take `CCCOC(=O)Cn1c(=O)c2cc3c(=O)n(CC(=O)OCCC)c(=O)c3cc2c1=O`: the Potency is inactive: > 76.9 µM.

On to `COc1ccccc1C(=O)n1nc(-c2ccccc2)nc1NCc1ccco1`, for which the Potency was inactive: > 76.9 µM.

On to `O=C(NCCCN1CCN(Cc2ccccc2)CC1)C1CCN(S(=O)(=O)N2CCCC2)CC1`, for which the Potency is inactive: > 76.9 µM.

Turning to `COc1ccccc1C1SCCN1S(C)(=O)=O` (stereo unspecified), the Potency is inactive: > 76.9 µM.

`Cc1nc2sc3c(c2c2nc(-c4ccco4)nn12)CCCC3`: the Potency was inactive: > 76.9 µM.

Regarding `Cc1cccc(C)c1NC(=O)C1CCCNC1` (stereo unspecified), the Potency was inactive: > 76.9 µM.

`O=C(Nc1sc2c(c1C(=O)NC1CC1)CCCCCC2)c1ccco1`: the Potency was inactive: > 76.9 µM.

With `COc1ccc(CCN2C(=O)CC(Nc3ccc(N4CCOCC4)cc3)C2=O)cc1OC` (stereo unspecified), the Potency is inactive: > 76.9 µM.

On to `CC(=O)Nc1ccc(N/C=C/C(=O)C(C)(C)C)cc1`, for which the Potency is inactive: > 76.9 µM.

In the case of `CC(C)CNC(=O)NC1C(NC(=O)NCC(C)C)N(C)C(=O)N1C` (stereo unspecified), the Potency is inactive: > 76.9 µM.

With `CCN1CCc2nc(SCC(=O)Nc3ccc(OC)cc3)c(C#N)cc2C1`, the Potency was inactive: > 76.9 µM.

For the molecule `CCn1c(SCC(=O)c2ccc(CNC(C)=O)o2)nnc1-c1cccs1`, the Potency was inactive: > 76.9 µM.

Take `Cc1occc1-c1nnc(SCC(=O)c2ccc(Cl)cc2)n1C`: the Potency is inactive: > 76.9 µM.

With `O=C1CN(C(=O)c2ccco2)C(c2ccccc2)c2cc(Cl)ccc2N1` (stereo unspecified), the Potency was inactive: > 76.9 µM.

For the molecule `Cc1ccc2c(C)c(C(=O)Nc3nnc(C)s3)oc2c1`, the Potency is inactive: > 76.9 µM.

For `O=C(c1ccco1)N1CCN(c2ncnc3c(-c4ccccc4)nsc23)CC1`, the Potency was inactive: > 76.9 µM.

For the molecule `CCCN1C2CCCC1CC(NC(=O)Nc1cccc(C(C)=O)c1)C2` (stereo unspecified), the Potency is inactive: > 76.9 µM.

With `OC(c1cccnc1)c1cccs1` (stereo unspecified), the Potency was inactive: > 76.9 µM.

As to `Cc1nc2nc(C)c(CCC(=O)N3CCN(c4ccccn4)CC3)c(C)n2n1`, the Potency is inactive: > 76.9 µM.

As to `O=C(CN1CCCC1)Nc1ccc(Oc2ccc(NC(=O)CN3CCCC3)cc2)cc1`, the Potency result was “inactive”.

For `CCCCOC(=O)Nc1nnc(-c2ccccc2OC)s1`, the Potency was inactive: > 76.9 µM.

As for `CC1Cn2c(nnc2C23CC4CC(CC(C4)C2)C3)S1` (stereo unspecified), the Potency was inactive: > 76.9 µM.

In the case of `CCN(CC(=O)NCc1ccc(F)cc1)C(=O)C1CCN(C(=O)Nc2ccccc2)CC1`, the Potency was inactive: > 76.9 µM.

Take `O=C(Cc1ccccc1)Nc1ccc(C(=O)O)cc1`: the Potency is inactive: > 76.9 µM.

Turning to `CCCn1c(SCC(=O)N2CCc3ccccc3C2)nc2c1c(=O)n(C)c(=O)n2C`, the Potency was inactive: > 76.9 µM.

Regarding `O=C1CC(C(=O)Nc2ccccc2)N=C(N2CCOCC2)N1` (stereo unspecified), the Potency was inactive: > 76.9 µM.

In the case of `CC1CN(Cc2cc(=O)n3ccsc3n2)CC(C)O1` (stereo unspecified), the Potency was inactive: > 76.9 µM.

Consider `CC(=O)Nc1ccc(S(=O)(=O)N2CCN(C34CC5CC(CC(C5)C3)C4)CC2)cc1`, for which the Potency was inactive: > 76.9 µM.

As for `CCCN1Cc2cccc(C(N)=O)c2C1=O`, the Potency was inactive: > 76.9 µM.

On to `CS(=O)(=O)N1CCN(c2ccccc2NC(=O)CSc2ccc(Cl)cc2)CC1`, for which the Potency is inactive: > 76.9 µM.

For `CC1=C(C#N)C(NC(=O)C2CC2)(C(F)(F)F)C(=O)N1` (stereo unspecified), the Potency is inactive: > 76.9 µM.

`CCN(C(=O)c1cc2cc(OC)ccc2oc1=O)c1ccccc1`: the Potency was inactive: > 76.9 µM.

For `O=S(NCc1ccccc1)C12CC3CC(CC(C3)C1)C2` (stereo unspecified), the Potency was inactive: > 76.9 µM.

On to `CCOc1ccc(OCC)c(NC(=O)CSc2nc3c(c(=O)n(C)c(=O)n3C)n2C(C)C)c1`, for which the Potency was inactive: > 76.9 µM.

In the case of `CCCc1cc2c(=O)c(-c3ccccn3)c(C)oc2cc1O`, the Potency was inactive: > 76.9 µM.

On to `Cc1cc(NC(=O)c2cccc(S(=O)(=O)N3CCCC3)c2)no1`, for which the Potency was inactive: > 76.9 µM.

Consider `O=C1CC(O)(C(F)F)Oc2ccc3ccccc3c21` (stereo unspecified), for which the Potency is inactive: > 76.9 µM.

For `Nc1cc(OC(=O)c2ccco2)nn1S(=O)(=O)c1ccc(F)cc1`, the Potency is inactive: > 76.9 µM.

`COc1cc(C)nc(OCCNS(=O)(=O)c2cc(C)ccc2C)n1`: the Potency was inactive: > 76.9 µM.

As for `Cc1ccc(S(=O)(=O)C(C#N)c2nc3ccccc3nc2N2CC(C)OC(C)C2)cc1C` (stereo unspecified), the Potency is inactive: > 76.9 µM.

With `Cn1cccc1C(=O)N1CCN(c2cccc(C(F)(F)F)c2)CC1`, the Potency was inactive: > 76.9 µM.

`CC(C)CCn1c(N2CCN(Cc3ccccc3)CC2)nc2c1c(=O)[nH]c(=O)n2C`: the Potency is inactive: > 76.9 µM.

Consider `COc1ccc(NC(=O)c2ccco2)cc1NC(=O)c1cccs1`, for which the Potency is inactive: > 76.9 µM.

On to `O=S(=O)(NC1CCCC1)c1ccc(S(=O)(=O)NC2CCCC2)cc1`, for which the Potency was inactive: > 76.9 µM.

Consider `Cc1ccc(C)c(/C(O)=C2/C(=O)C(=O)N(CCN3CCOCC3)C2c2ccc(C)o2)c1` (stereo unspecified), for which the Potency is inactive: > 76.9 µM.

`Cc1ccc(-n2ncc3c2ncn2c(-c4ccncc4)nnc32)cc1`: the Potency is inactive: > 76.9 µM.

Consider `CNC(=O)N(C1=NCC(C)S1)c1ccc(F)cc1F` (stereo unspecified), for which the Potency is inactive: > 76.9 µM.

Regarding `COc1ccc(C(=O)Nc2c3c(nn2-c2cccc(Cl)c2)CS(=O)C3)cc1` (stereo unspecified), the Potency is inactive: > 76.9 µM.

For `CCOC(=O)C1C(=O)CC(=O)CC1CC(C)SCC` (stereo unspecified), the Potency was inactive: > 76.9 µM.

For `CCCOP(=O)(c1ccc(N(C)C)cc1)C(O)c1ccncc1` (stereo unspecified), the Potency is inactive: > 76.9 µM.

As to `O=C(c1ccc(COc2ccc(F)cc2)o1)n1cccn1`, the Potency is inactive: > 76.9 µM.

As to `COCCn1nnnc1CN1CCC(NC(=O)Nc2cccc(OC)c2)CC1`, the Potency was inactive: > 76.9 µM.

As for `CC1(C)CC(=O)C2=C(C1)Oc1ncn(CCO)c(=N)c1C2c1ccccc1` (stereo unspecified), the Potency is inactive: > 76.9 µM.

On to `CC(C)N=C1SCC(C)(/C=N/O)S1` (stereo unspecified), for which the Potency is inactive: > 76.9 µM.

Consider `CCOC(=O)c1ccc(N=c2sc(C(=O)OC)cc(=O)n2C2CC2)cc1`, for which the Potency is inactive: > 76.9 µM.

Regarding `c1ccc(CSc2nnc(-c3ccco3)n2Cc2ccccc2)cc1`, the Potency is inactive: > 76.9 µM.

Consider `Cn1c(=O)c2c(nc(CN3CCN(c4ccc(F)cc4)CC3)n2Cc2ccccc2F)n(C)c1=O`, for which the Potency is inactive: > 76.9 µM.

`CC1CCCCC1NC(=O)CCS(=O)(=O)c1cccc2nonc12` (stereo unspecified): the Potency was inactive: > 76.9 µM.

Turning to `Cc1nn(C)c(C)c1NC(=O)c1ccc(S(=O)(=O)N(C)C)cc1`, the Potency was inactive: > 76.9 µM.

With `CN(C)/C=N/c1c(C(=O)NCc2ccccc2)nnn1Cc1ccccc1`, the Potency was inactive: > 76.9 µM.

`CCCCN(C)CCCNC(=O)Cn1c(=O)sc2ccccc21`: the Potency was inactive: > 76.9 µM.

Consider `COc1cccc(OC)c1C(=O)N1CCN(c2ccccn2)CC1`, for which the Potency was inactive: > 76.9 µM.

As for `COc1ccccc1Oc1ccc2c(c1)C(=O)N(c1ccc(O)cc1)C2=O`, the Potency is inactive: > 76.9 µM.

As to `O=c1[nH]cnc2c1nc(SCc1ccccc1)n2C1OC(CO)C(O)C1O` (stereo unspecified), the Potency was inactive: > 76.9 µM.

With `CC1CN(C(=O)c2cc(S(=O)(=O)N3CCCC3)c(Cl)cc2Cl)CC(C)O1` (stereo unspecified), the Potency is inactive: > 76.9 µM.

Consider `O=C(NC1CCCCC1)Sc1ccc(Cl)cc1`, for which the Potency was inactive: > 76.9 µM.

Regarding `Cc1nn(Cc2ccccc2)c(C)c1NC(=O)c1cc2nc(-c3ccco3)cc(C(F)(F)F)n2n1`, the Potency is inactive: > 76.9 µM.

For the molecule `Cc1nc(NC(=O)CSc2ccccc2N)sc1C`, the Potency was inactive: > 76.9 µM.

Consider `CCOC(=O)C1CCCN(C(=O)c2cc(-c3ccc(C)cc3)on2)C1` (stereo unspecified), for which the Potency was inactive: > 76.9 µM.

`CC(NS(=O)(=O)c1ccccc1)C(N)=O` (stereo unspecified): the Potency was inactive: > 76.9 µM.

For `CC(C)C(c1nnnn1Cc1ccco1)N1CCN(c2cccc(Cl)c2)CC1` (stereo unspecified), the Potency is inactive: > 76.9 µM.

`CC1(C)CC(=O)c2cc(C(=O)N3CCCCC3)c(=O)n(-c3ccc(Cl)cc3)c2C1`: the Potency was inactive: > 76.9 µM.

`CCOC(=O)C1(Nc2nccs2)Sc2ccccc2NC1=O` (stereo unspecified): the Potency was inactive: > 76.9 µM.

`CCOc1cc(-c2noc(N)c2C(=O)OC)cc(OCC)c1OCC`: the Potency is inactive: > 76.9 µM.

In the case of `O=P1(c2ccccc2)C=Cn2c1cc1c2CCCC1` (stereo unspecified), the Potency was inactive: > 76.9 µM.

For the molecule `COc1ccc(CN2CCN(C(=O)c3ccco3)CC2)cc1`, the Potency was inactive: > 76.9 µM.

On to `COc1ccc(S(=O)(=O)N2CCN(C(=O)CCC3CCCC3)CC2)cc1`, for which the Potency is inactive: > 76.9 µM.

In the case of `CN(c1ccc(OCC(=O)N2CCCCC2)cc1)S(=O)(=O)c1cccs1`, the Potency was inactive: > 76.9 µM.

On to `O=C(CSc1nnc2sc3ccccc3n12)N1CCN(c2ccccc2)CC1`, for which the Potency was inactive: > 76.9 µM.

In the case of `NC(=O)CN1C(=O)C2CCCCN2C(=O)c2ccccc21` (stereo unspecified), the Potency is inactive: > 76.9 µM.

For the molecule `CCn1c(N2CCC(Cc3ccccc3)CC2)nc2c1c(=O)[nH]c(=O)n2C`, the Potency is inactive: > 76.9 µM.
